According to the RNAGym collection of RNA variant scans (doi:10.7554/elife.90254):
The source gives no read counts; variants with many changes may rest on few reads.

B1: LINE1-mini (parent)
chain: GGCAGAGCUCAACACAGCGUGGCAAAGUGGCUGUGGCUAGACUGCC

Variants of: B1
Assay: self-cleavage, relative activity (ratio to wild type); higher = more cleavage; in vitro, sequencing; the parent is a self-cleaving ribozyme

Variant | self-cleavage
A4C G36A A39G G44U | 0.08
G7A A11U C31G A39C | 0.02
G7U C10U A16U | 0.12
C3U G29U G36U C37U | 0.02
G5A A24C A26C | 0.07
A4C G5U C37G | 0.06
G5U A14U G22C C42A | 0.03
A6G A26U G40A | 0.51
A12C C15U G29U | 0.03
C15U G27A C31G G33A | 0.1
G21C G33A U43A | 0.07
G1A U9C G22U G27U G35U | 0.37
U9G G35U C45A | 0.02
G1A C15U G36U G40C C42U | 0.05
G17A G36U C45A | 0.15
G5A G7U C13U G17C G22A A41G | 0.44
C8A A12C A14U G17A G40C C45U | 0.02
G2C G5A C13A A14U U20A C46U | 0.03
C8A G40U U43A | 0.14
C8A G35U C46U | 0.03
A4U A12C C23U C31U | 0.01
C10A A24U G40U | 0.02
A14G C23G C45U | 0.62
U9C U28A G30U U34C A41C | 0.01

Variant | self-cleavage
G7U G17C U34G | 0.19
C3U C18U G30C G33A | 0.13
G2U G17C A25C | 0.02
A14U C31G C45A | 0
A4C A24G A26C G36U | 0.15
G5A A12U C31A | 0.07
A4G C8A U32A U38G C42U | 0.12
A4G A16C G22C U43C G44A | 0.03
A4G A12G C23A | 0.04
A24U G40U U43A | 0.1
A12U C23U U34G | 0.03
A6U G21U G33C G35U C46G | 0.12
C13A A14U A16U U28A | 0.1
A6U C8U C13A G17U | 0.67
A4U C8A A14U G35C A41U | 0.26
A4G C13A A41C G44U | 0.1
C3U A14C U20C G33U | 0.12
G7C A16G A25G U32G G33U | 0
U9C A12U A25G G35C | 0.01
A6U A25C C31U G40U | 0.67
C15G G17U G21A A25C A26U | 0.09
A6G C13A G21U C31G G44U | 0.03
A4G A16G G33A A41C | 0
C3U U20G A39C | 0.06

Variant | self-cleavage
G2C U20A U32G G40A | 0.06
G2U A24C C42U | 0.02
G22A A39C C46U | 0.1
C8A C10U G22C A41U | 0.02
G5A C13G G17U | 0.19
C3U A6G U9A A25U G30A C31A | 0.02
G2A C3A A11G A14U | 0.12
C3G A12U C45U | 0.08
C8U G29U G44U | 0.12
G5C C8U U20A G27A G30C C31U C37U C42G U43C | 0.08
C23U G30A C46A | 0.09
G1A A11U U38C | 0.06
A4C G5U G27C G36U | 0.08
G2U A12U G19A G40U | 0.03
C8A C13U C23G C46U | 0.14
C3U A12G G30C G44A | 0.01
C8A G17A U38G | 0.09
G2A G5U A11C | 0.04
G2C G7U C15U G17U C18U | 0.04
A11C G36U A41C | 0.02
C18A G22C U28A G33C | 0.03
G1U G7C G33A G44C | 0.06
C10U C42G C45A | 0.03
A4U G21U A24U | 0.14

Variant | self-cleavage
U9A G21U U32C G36C | 0.04
A26G G27A G40A | 0.11
G19C G21U U32C | 0.26
G5U C8A G33U U34A C37U | 0.21
A6G A14G G21U C42G | 0.01
A25G A26U C46G | 0.13
A24U C31A G35U G40U | 0.03
A4U G5U U34A | 0.03
G17C C18A G22U | 0.27
G22C C31U G36A U38A | 0.01
U9A A14U G21A U28G | 0.02
C18U G22A A24C G36U C46G | 0.05
G1A G40C C42G | 0.06
G1U C3U C13A U20C C46U | 0.24
G21C A24C U34A G35A G36U | 0.13
G1U C8U C45A | 0.05
G1C U20C G27C C37U | 0.01
C8G C15A G29U | 0.05
A6U G21C A39C | 0.12
G1A A11G G22U G29A | 0.06
G7C C18G U28C A41C | 0.06
G19U G33U C46U | 0.01
U32C G40C G44U C46U | 0.02
C3A A12G C37G A39C | 0.67

Variant | self-cleavage
A11U U34A U38A C45G | 0
C15U C23G G35U | 0.05
A4G U38A G40A | 0.04
U28A G40C U43G | 0.08
G30U G40U G44U | 0.03
C8A C23A A39U | 0.06
G2A G7U C10A | 0.04
G2U G7A C18A G19U G21C G36U G40U | 0.07
G5U A16G C23A U38A | 0.03
G1U G2C A12U A14U G30U A39U | 0.07
C3U A12C A16U A25C G27U C37A C42U | 0.02
G7U G19U U32A | 0.03
C3U G7A C13U C31U G33U G40A | 0.07
C18A G33A C42A | 0.02
G2U C8A U32C | 0.02
G5U G30C G36U C37U U38A | 0.03
A4G A14U A16U U20G C45G C46U | 0.07
G1U G2U A12C C45U | 0
G1U G5A A14C U38G C45A | 0.03
G5C C15G C18G | 0.01
A6C C23A A24C G29A | 0.28
G1A A16C C45U C46G | 0.13
C31A U32G G33A C46A | 0.03
U20G G21U G33C | 0.04

Variant | self-cleavage
C3G G22A G29U C46A | 0.08
A26U G30U G40C U43G G44A | 0.01
G21A A25G C42U | 0.7
A6U C10G C18A A25U G36U | 0.02
G1U C23G U28G U32A U43G | 0.03
A14U A41U U43A | 0
C13A C15U A41U | 0.06
C8G G27U G30U U34C G35U A41C | 0.13
G5U G7U C8A G29A U38A | 0.25
C3A A16U G35U A39U | 0.04
A6C U32G G33U | 0.07
G5C A24G U28G G30A U38C | 0.01
G1A A24C U38C | 0.04
G7U A26U C37A | 0.01
C3A A6U C10U A14C G19U A41U | 0.05
A16G G22U C23G C45A | 0.36
G1U A14U U43G | 0
U9G U20G G29C G30C C31A G36U C37U | 0.01
G22U A24U U43C | 0
C10A C23U U28C G30U G44C | 0.02
C13A U20A U38G | 0.01
G1A C3G C10A U20G G29A | 0.09
C3U A4C U20C G44U | 0.09
G2C G19C U43G | 0

Variant | self-cleavage
A6U G7U A14U C37G A39U | 0
C3A A4C G7U U43A | 0.24
G1U G7A G22A A24U G29A G44A | 0.04
C13G G36A C45U | 0.38
C8G A11G C13A C37A | 0.01
G2A G29A G36C | 0.13
G21U G27C U34A A41C C42A | 0.02
A11C C13A C23U U34G | 0
C3A G17A U34C C46U | 0.09
A6C G21C G44U | 0.12
G1U G5U A39G | 0.08
C3G G5U G40U | 0.05
A6U G17U G36C | 0.02
G2U G17A A26U A41G C42U | 0.03
A11G U20C C31U G40C | 0.01
G22A G36A U43A | 0.16
C18U U20C G36U C46G | 0.07
G5U G19C C23U | 0.05
C8A G22A A24C G36U G40U A41C | 0.02
C3U U28G A39U C42U | 0.28
C13A A16C C18A U34A | 0.02
A11C C23U G30C G35U | 0
G19A U20G G21C G40U | 0.03
